The values below come from the supplement of paper PMC11876631.

± gives the standard deviation of the averaged measurements. Laboratory Escherichia coli strains with one amino-acid change in an essential protein, pooled on minimal glucose agar with carbenicillin or gentamicin at twice the control MIC (plus kanamycin and chloramphenicol for the plasmids), 48 h. Fold change of barcode share against drug-free plates; higher = less susceptible. Active = above 20 in both replicates (the paper's putatively resistant). '<' = one read or none on drug, '>' = one read or none on a drug-free plate. Shares are relative, so most strains fall below 1 when a few take over. Listed are strains with at least 15 reads on both drug-free plates, and hits; most hits rest on fewer reference reads. Replicate rank correlation about 0.5. Edits are read from barcodes.

B1: mreC I26P (protein)
chain: MKPIFSRGPSLQIRLILAVLVALGIPIADSRLGTFSQIRTYMDTAVSPFYFVSNAPRELLDGVSQTLASRDQLELENRALRQELLLKNSELLMLGQYKQENARLRELLGSPLRQDEQKMVTQVISTVNDPYSDQVVIDKGSVNGVYEGQPVISDKGVVGQVVAVAKLTSRVLLICDATHALPIQVLRNDIRVIAAGNGCTDDLQLEHLPANTDIRVGDVLVTSGLGGRFPEGYPVAVVSSVKLDTQRAYTVIQARPTAGLQRLRYLLLLWGADRNGANPMTPEEVHRVANERLMQMMPQVLPSPDAMGPKLPEPATGIAQPTPQQPATGNAATAPAAPTQPAANRSPQRATPPQSGAQPPARAPGGQ
B2: mreC V238A (protein)
chain: MKPIFSRGPSLQIRLILAVLVALGIIIADSRLGTFSQIRTYMDTAVSPFYFVSNAPRELLDGVSQTLASRDQLELENRALRQELLLKNSELLMLGQYKQENARLRELLGSPLRQDEQKMVTQVISTVNDPYSDQVVIDKGSVNGVYEGQPVISDKGVVGQVVAVAKLTSRVLLICDATHALPIQVLRNDIRVIAAGNGCTDDLQLEHLPANTDIRVGDVLVTSGLGGRFPEGYPVAVASSVKLDTQRAYTVIQARPTAGLQRLRYLLLLWGADRNGANPMTPEEVHRVANERLMQMMPQVLPSPDAMGPKLPEPATGIAQPTPQQPATGNAATAPAAPTQPAANRSPQRATPPQSGAQPPARAPGGQ
B3: mreC V238Q (protein)
chain: MKPIFSRGPSLQIRLILAVLVALGIIIADSRLGTFSQIRTYMDTAVSPFYFVSNAPRELLDGVSQTLASRDQLELENRALRQELLLKNSELLMLGQYKQENARLRELLGSPLRQDEQKMVTQVISTVNDPYSDQVVIDKGSVNGVYEGQPVISDKGVVGQVVAVAKLTSRVLLICDATHALPIQVLRNDIRVIAAGNGCTDDLQLEHLPANTDIRVGDVLVTSGLGGRFPEGYPVAVQSSVKLDTQRAYTVIQARPTAGLQRLRYLLLLWGADRNGANPMTPEEVHRVANERLMQMMPQVLPSPDAMGPKLPEPATGIAQPTPQQPATGNAATAPAAPTQPAANRSPQRATPPQSGAQPPARAPGGQ
B4: mreC V123P (protein)
chain: MKPIFSRGPSLQIRLILAVLVALGIIIADSRLGTFSQIRTYMDTAVSPFYFVSNAPRELLDGVSQTLASRDQLELENRALRQELLLKNSELLMLGQYKQENARLRELLGSPLRQDEQKMVTQPISTVNDPYSDQVVIDKGSVNGVYEGQPVISDKGVVGQVVAVAKLTSRVLLICDATHALPIQVLRNDIRVIAAGNGCTDDLQLEHLPANTDIRVGDVLVTSGLGGRFPEGYPVAVVSSVKLDTQRAYTVIQARPTAGLQRLRYLLLLWGADRNGANPMTPEEVHRVANERLMQMMPQVLPSPDAMGPKLPEPATGIAQPTPQQPATGNAATAPAAPTQPAANRSPQRATPPQSGAQPPARAPGGQ
B5: mreC I124Q (protein)
chain: MKPIFSRGPSLQIRLILAVLVALGIIIADSRLGTFSQIRTYMDTAVSPFYFVSNAPRELLDGVSQTLASRDQLELENRALRQELLLKNSELLMLGQYKQENARLRELLGSPLRQDEQKMVTQVQSTVNDPYSDQVVIDKGSVNGVYEGQPVISDKGVVGQVVAVAKLTSRVLLICDATHALPIQVLRNDIRVIAAGNGCTDDLQLEHLPANTDIRVGDVLVTSGLGGRFPEGYPVAVVSSVKLDTQRAYTVIQARPTAGLQRLRYLLLLWGADRNGANPMTPEEVHRVANERLMQMMPQVLPSPDAMGPKLPEPATGIAQPTPQQPATGNAATAPAAPTQPAANRSPQRATPPQSGAQPPARAPGGQ
B6: mreC V123A (protein)
chain: MKPIFSRGPSLQIRLILAVLVALGIIIADSRLGTFSQIRTYMDTAVSPFYFVSNAPRELLDGVSQTLASRDQLELENRALRQELLLKNSELLMLGQYKQENARLRELLGSPLRQDEQKMVTQAISTVNDPYSDQVVIDKGSVNGVYEGQPVISDKGVVGQVVAVAKLTSRVLLICDATHALPIQVLRNDIRVIAAGNGCTDDLQLEHLPANTDIRVGDVLVTSGLGGRFPEGYPVAVVSSVKLDTQRAYTVIQARPTAGLQRLRYLLLLWGADRNGANPMTPEEVHRVANERLMQMMPQVLPSPDAMGPKLPEPATGIAQPTPQQPATGNAATAPAAPTQPAANRSPQRATPPQSGAQPPARAPGGQ
B7: msbA V287Q (protein)
chain: MHNDKDLSTWQTFRRLWPTIAPFKAGLIVAGVALILNAASDTFMLSLLKPLLDDGFGKTDRSVLVWMPLVVIGLMILRGITSYVSSYCISWVSGKVVMTMRRRLFGHMMGMPVSFFDKQSTGTLLSRITYDSEQVASSSSGALITVVREGASIIGLFIMMFYYSWQLSIILIVLAPIVSIAIRVVSKRFRNISKNMQNTMGQVTTSAEQMLKGHKEVLIFGGQEVETKRFDKVSNRMRLQGMKMVSASSISDPIIQLIASLALAFVLYAASFPSVMDSLTAGTITVQFSSMIALMRPLKSLTNVNAQFQRGMAACQTLFTILDSEQEKDEGKRVIERATGDVEFRNVTFTYPGRDVPALRNINLKIPAGKTVALVGRSGSGKSTIASLITRFYDIDEGEILMDGHDLREYTLASLRNQVALVSQNVHLFNDTVANNIAYARTEQYSREQIEEAARMAYAMDFINKMDNGLDTVIGENGVLLSGGQRQRIAIARALLRDSPILILDEATSALDTESERAIQAALDELQKNRTSLVIAHRLSTIEKADEIVVVEDGVIVERGTHNDLLEHRGVYAQLHKMQFGQ
B8: metL L546P (protein)
chain: MSVIAQAGAKGRQLHKFGGSSLADVKCYLRVAGIMAEYSQPDDMMVVSAAGSTTNQLINWLKLSQTDRLSAHQVQQTLRRYQCDLISGLLPAEEADSLISAFVSDLERLAALLDSGINDAVYAEVVGHGEVWSARLMSAVLNQQGLPAAWLDAREFLRAERAAQPQVDEGLSYPLLQQLLVQHPGKRLVVTGFISRNNAGETVLLGRNGSDYSATQIGALAGVSRVTIWSDVAGVYSADPRKVKDACLLPLLRLDEASELARLAAPVLHARTLQPVSGSEIDLQLRCSYTPDQGSTRIERVLASGTGARIVTSHDDVCLIEFQVPASQDFKLAHKEIDQILKRAQVRPLAVGVHNDRQLLQFCYTSEVADSALKILDEAGLPGELRLRQGLALVAMVGAGVTRNPLHCHRFWQQLKGQPVEFTWQSDDGISLVAVLRTGPTESLIQGLHQSVFRAEKRIGLVLFGKGNIGSRWLELFAREQSTLSARTGFEFVLAGVVDSRRSLLSYDGLDASRALAFFNDEAVEQDEESLFLWMRAHPYDDLVVPDVTASQQLADQYLDFASHGFHVISANKLAGASDSNKYRQIHDAFEKTGRHWLYNATVGAGLPINHTVRDLIDSGDTILSISGIFSGTLSWLFLQFDGSVPFTELVDQAWQQGLTEPDPRDDLSGKDVMRKLVILAREAGYNIEPDQVRVESLVPAHCEGGSIDHFFENGDELNEQMVQRLEAAREMGLVLRYVARFDANGKARVGVEAVREDHPLASLLPCDNVFAIESRWYRDNPLVIRGPGAGRDVTAGAIQSDINRLAQLL
B9: mukB V758Q (protein)
chain: MIERGKFRSLTLINWNGFFARTFDLDELVTTLSGGNGAGKSTTMAAFVTALIPDLTLLHFRNTTEAGATSGSRDKGLHGKLKAGVCYSMLDTINSRHQRVVVGVRLQQVAGRDRKVDIKPFAIQGLPMSVQPTQLVTETLNERQARVLPLNELKDKLEAMEGVQFKQFNSITDYHSLMFDLGIIARRLRSASDRSKFYRLIEASLYGGISSAITRSLRDYLLPENSGVRKAFQDMEAALRENRMTLEAIRVTQSDRDLFKHLISEATNYVAADYMRHANERRVHLDKALEFRRELHTSRQQLAAEQYKHVDMARELAEHNGAEGDLEADYQAASDHLNLVQTALRQQEKIERYEADLDELQIRLEEQNEVVAEAIERQQENEARAEAAELEVDELKSQLADYQQALDVQQTRAIQYNQAIAALNRAKELCHLPDLTADCAAEWLETFQAKELEATEKMLSLEQKMSMAQTAHSQFEQAYQLVVAINGPLARNEAWDVARELLREGVDQRHLAEQVQPLRMRLSELEQRLREQQEAERLLADFCKRQGKNFDIDELEALHQELEARIASLSDSVSNAREERMALRQEQEQLQSRIQSLMQRAPVWLAAQNSLNQLSEQCGEEFTSSQDVTEYLQQLLEREREAIVERDEVGARKNAVDEEIERLSQPGGSEDQRLNALAERFGGVLLSEIYDDVSLEDAPYFSALYGPSRHAIVVPDLSQVTEHLEGLTDCPEDLYLIEGDPQSFDDSVFSVDELEKAQVVKIADRQWRYSRFPEVPLFGRAARESRIESLHAEREVLSERFATLSFDVQKTQRLHQAFSRFIGSHLAVAFESDPEAEIRQLNSRRVELERALSNHENDNQQQRIQFEQAKEGVTALNRILPRLNLLADDSLADRVDEIRERLDEAQEAARFVQQFGNQLAKLEPIVSVLQSDPEQFEQLKEDYAYSQQMQRDARQQAFALTEVVQRRAHFSYSDSAEMLSGNSDLNEKLRERLEQAEAERTRAREALRGHAAQLSQYNQVLASLKSSYDTKKELLNDLQRELQDIGVRADSGAEERARIRRDELHAQLSNNRSRRNQLEKALTFCEAEMDNLTRKLRKLERDYFEMREQVVTAKAGWCAVMRMVKDNGVERRLHRRELAYLSADDLRSMSDKALGALRLAVADNEHLRDVLRMSEDPKRPERKIQFFVAVYQHLRERIRQDIIRTDDPVEAIEQMEIELSRLTEELTSREQKLAISSRSVANIIRKTIQREQNRIRMLNQGLQNVSFGQVNSVRLNVNVRETHAMLLDVLSEQHEQHQDLFNSNRLTFSEALAKLYQRLNPQIDMGQRTPQTIGEELLDYRNYLEMEVEVNRGSDGWLRAESGALSTGEAIGTGMSILVMVVQSWEDESRRLRGKDISPCRLLFLDEAARLDARSIATLFELCERLQMQLIIAAPENISPEKGTTYKLVRKVFQNTEHVHVVGLRGFAPQLPETLPGTDEAPSQAS
B10: mraY V162A (protein)
chain: MLVWLAEHLVKYYSGFNVFSYLTFRAIVSLLTALFISLWMGPRMIAHLQKLSFGQVVRNDGPESHFSKRGTPTMGGIMILTAIVISVLLWAYPSNPYVWCVLVVLVGYGVIGFVDDYRKVVRKDTKGLIARWKYFWMSVIALGVAFALYLAGKDTPATQLVAPFFKDVMPQLGLFYILLAYFVIVGTGNAVNLTDGLDGLAIMPTVFVAGGFALVAWATGNMNFASYLHIPYLRHAGELVIVCTAIVGAGLGFLWFNTYPAQVFMGDVGSLALGGALGIIAVLLRQEFLLVIMGGVFVVETLSVILQVGSFKLRGQRIFRMAPIHHHYELKGWPEPRVIVRFWIISLMLVLIGLATLKVR

For the data set, the target named is Escherichia coli (laboratory strain). Description: barcode share on antibiotic plates over drug-free plates; higher = less susceptible. The conditions noted are these: antibiotic: gentamicin; 2× MIC (MIC 0.45 µg/mL). The method, then: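 A pool of E. coli strains, each edited to carry one amino-acid change in an essential protein, was grown for 48 h on minimal glucose agar with or without antibiotic; strain barcodes were sequenced; mean of two replicates.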
As to B1, the “fold change of barcode share” value was below 0.0129.

On to B2, for which the “fold change of barcode share” value was below 0.0119.

Turning to B3, the “fold change of barcode share” value is below 0.0212. For B4 the value was below 0.0213; for B5, 0.0303 ± 0.012. In the case of B6, the “fold change of barcode share” value was below 0.0158. Regarding B7, the “fold change of barcode share” value is below 0.0153. With B8 the figure was below 0.0208; with B9, below 0.0147; with B10, below 0.00773.
